Assay results reported in PubChem BioAssay AID624418 (National Center for Advancing Translational Sciences (NCATS), 2012).
About 530 (0.13%) of roughly 410,000 compounds were called active. This list was built around the results that the source calls inconclusive (neither active nor inactive); the mix of calls is not that of the screen. Calls come from the whole dose curve; as a rule, active = well fitted inhibition curve with a large enough effect; inconclusive = small, poorly fitted or top-dose-only effect, or another doubt; inactive = no such curve, though single readings can be large or run the other way. Potencies beside an inconclusive call are fits to weak or partial responses and may not hold up.

Test: qHTS of GLP-1 Receptor Inverse Agonists: Cytotox Screen
Settings: HEK293 cAMP-luciferase reporter cells, luminescence, 24 h; activity change, negative = inhibition: at 38.3 µM (top of the series) unless noted
In short: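 MLSMR compounds, 24 hr on cells at 37 deg C/5% CO2; luminescence after luciferase reagent (12 min RT). Inhibition counted as the undesired cytotoxic outcome.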
% is set by controls: 0 for no effect and ±100 for the full control effect; potency is the fitted concentration of half-maximal effect.

Compound | Potency | activity change, negative = inhibition
COc1ccc(CSc2nc3ccncc3n2CC(=O)Nc2cc(C)cc(C)c2)cc1 | inconclusive: 10 µM [inhibitor, partial curve, poor fit] | –
CCOC(=O)c1c(C)[nH]c(C)c1S(=O)(=O)NCC(=O)Nc1ccc(C)cc1C | inactive | –
Cc1ccc(C(=O)NC(=C(Cl)Cl)S(=O)(=O)c2ccccc2)cc1 | inconclusive: 8.91 µM [inhibitor, partial curve, poor fit] | –
O=C(Nc1cccc(S(=O)(=O)NCc2ccco2)c1)c1cc(-c2ccc(F)cc2)nc2ccccc12 | inconclusive: 10 µM [inhibitor, partial curve] | –
Cc1ccc2cc(CN(C(=O)c3ccco3)c3cccc(C)c3C)c(=O)[nH]c2c1 | inactive | –
CCCCC(=O)NNC(=O)CC(=O)Nc1ccccc1C(=O)O | inconclusive: 28.2 µM [inhibitor, single point] | –
O=C(CCl)N(c1ccc(Cl)cc1)c1c[nH]c2ccccc12 | inconclusive: 28.2 µM [inhibitor, single point] | –
Cc1ccc(CNC(=O)C(Cc2ccccc2)NS(=O)(=O)c2cccs2)cc1 (stereo not drawn) | inactive | –
Cc1cc(N2CCN(C)CC2)ccc1NC(=O)c1ccc(-c2ccc(Cl)cc2)o1 | inconclusive: 14.1 µM [inhibitor, single point] | –
Cc1nc2c(C(=O)NCCC(C)C)c[nH]n2c(=O)c1Cc1ccccc1F | inconclusive: 31.6 µM [inhibitor, single point] | –
COc1ccc2ccccc2c1/C=N/NC(=S)NCCN1CCOCC1 | inconclusive: 28.2 µM [inhibitor, single point] | –
CC(=O)Nc1ccc(N=Nc2ccc(O)cc2)cc1 | inconclusive: 10 µM [inhibitor, partial curve, poor fit] | –
COc1ccc(N(Cc2ccccc2)C(=O)c2nc(S(C)(=O)=O)ncc2Cl)cc1 | inconclusive: 10 µM [inhibitor, partial curve, poor fit] | –
CCOC(=O)/C=C/C(=O)OCC(=O)Nc1ccc(OC)c(Cl)c1 | inconclusive: 11.2 µM [inhibitor, single point] | –
COc1cccc(C(=O)Nc2ccc(-n3nncc3-c3ccccc3)cc2)c1OC | inactive | –
Cc1cccc(N2CCN(C(=O)Cn3nc(C)c4sc5ccccc5c4c3=O)CC2)c1C | inactive | –
O=C(Nc1nc2ccccc2[nH]1)c1ccc(Br)o1 | inconclusive: 28.2 µM [inhibitor, single point] | –
COc1ccc(C(CNC(=O)c2cccc(S(=O)(=O)NCc3ccccc3)c2)N(C)C)cc1 (stereo not drawn) | inactive | –
O=C(c1ccco1)N1CCN(c2nc(C3CC3)nc3c2nnn3Cc2ccccc2Cl)CC1 | inactive | –
CCCCCn1c(CN2CCN(c3cc(Cl)ccc3C)CC2)nc2c1c(=O)[nH]c(=O)n2C | inactive | –
COc1ccc(N2CCN(CCNC(=O)c3ccc4c(c3)[nH]c(=S)n3c5ccccc5nc43)CC2)cc1 | – | inactive: -0.631% [at 7.66 µM]
O=C(CSc1c2c(nc3ccc(Cl)cc13)CCCC2)N1CCN(C(=O)c2ccco2)CC1 | inconclusive: 11.2 µM [inhibitor, single point] | –
Cc1nc2scc(-c3cccs3)c2c(=O)[nH]1 | inactive | –

Compound | Potency | activity change, negative = inhibition
COc1ccc(-c2cc(=O)c3ccccc3o2)cc1 | inactive | –
CCOC(=O)c1cc(-c2ccccc2)nn1CC1CC(c2ccc(Cl)cc2)=NO1 (stereo not drawn) | inconclusive: 11.2 µM [inhibitor, partial curve, poor fit] | –
Cc1cc(C)nc(NNC2=CC(=[N+]3CCCCC3)CC(C)(C)C2)n1 | inconclusive: 14.1 µM [inhibitor, single point] | –
COc1ccc(NC(=O)c2c(N)no[n+]2[O-])cc1 | inconclusive: 22.4 µM [inhibitor, single point] | –
CC(=O)NCCC1CCN(c2nc3nonc3nc2N(C)Cc2ccccc2)CC1 | inactive | –
CCC(C)(C)n1nnnc1C(c1ccc(O)c(OC)c1)N1CCc2ccccc2C1 (stereo not drawn) | inactive | –
Cn1cc(C2NC(=O)c3ccccc3N2)c2ccccc21 (stereo not drawn) | inconclusive: 1.78 µM [inhibitor, full curve, poor fit] | –
COc1ccc(-c2cn(CCCOCc3ccccc3)nn2)cc1 | inconclusive: 2.82 µM [inhibitor, partial curve, poor fit] | –
CC1(C(=O)Nc2cccc(OC(F)(F)F)c2)Cc2c(-c3ccc4c(c3)OCO4)ccnc2O1 (stereo not drawn) | inconclusive: 2.51 µM [inhibitor, partial curve, poor fit] | –
O=C(O)c1c2c(nc3ccccc13)CCCCC2 | inactive | –
COc1ccc(NC(=O)CSc2nc3n[nH]c(C)c3c(=N)n2-c2ccc(Cl)c(C)c2)cc1OC | inconclusive: 28.2 µM [inhibitor, single point] | –
CCOC(=O)c1c(C(=O)OCC)c(C)n(Cc2cc(OC)c(OC)c(OC)c2)c1C | inactive | –
CC(=O)Nc1ccc(S(=O)(=O)N2c3ccccc3C(C)=CC2(C)C)cc1 | inconclusive: 0.501 µM [inhibitor, full curve, poor fit] | –
CN1CCC(N(C)S(=O)(=O)c2ccc(NC(=O)COc3ccc(Br)cc3Cl)cc2)CC1 | inconclusive: 14.1 µM [inhibitor, single point] | –
CN(C(=O)c1cccc(Nc2ccc(-c3ccc4c(c3)OCCO4)nn2)c1)C1CCCCC1 | inconclusive: 28.2 µM [inhibitor, single point] | –
O=C(NCCCN1CCCC1)c1ccc2c(c1)N(Cc1ccccc1)CCS2 | active: 4.47 µM | –
CCc1noc(C)c1C(=O)OCC(=O)Nc1nc(-c2ccc(F)c(F)c2)cs1 | inconclusive: 17.8 µM [inhibitor, single point] | –
O=c1cnn(Cc2ccc(Cl)c(Cl)c2)c2ccccc12 | inconclusive: 28.2 µM [inhibitor, single point] | –
COc1ccc(/C=C/C(=O)c2cc(Cl)ccc2O)c(OC)c1 | inactive | –
Cc1ccc(C(=O)Nc2ccc3c(c2)N(C)C(=O)c2ccccc2S3)cc1F | inconclusive: 1.58 µM [inhibitor, full curve, poor fit] | –
Cc1c(Cl)cccc1NC(=S)NCCc1ccc(C(F)(F)F)cc1 | inconclusive: 28.2 µM [inhibitor, single point] | –
CC1=NNC(=O)C1CCC(=O)N/N=C(\C)c1ccc(Cl)cc1 (stereo not drawn) | inconclusive: 28.2 µM [inhibitor, single point] | –
Cn1ccsc1=NC(=O)c1ccc(Cl)c([N+](=O)[O-])c1 | inactive | –

Compound | Potency | activity change, negative = inhibition
O=C(NCC1CCN(Cc2cccc(Cl)c2)CC1)Nc1ccc(Cl)cc1 | inconclusive: 17.8 µM [inhibitor, single point] | –
CC1(C)CCCN(C(=O)N2c3ccccc3Sc3ccccc32)C1 | inactive | –
O=C(c1c(Cl)nc2sccn12)N1CCN(c2cccc(Cl)c2)CC1 | inconclusive: 1.41 µM [inhibitor, full curve, poor fit] | –
NS(=O)(=O)c1ccc(N=Nc2ccc(O)c3ncccc23)cc1 | inconclusive: 22.4 µM [inhibitor, single point] | –
COc1ccccc1N1CCN(C(=O)C2c3ccccc3Oc3ccccc32)CC1 | inconclusive: 1 µM [inhibitor, full curve] | –
Cc1ccc2c(CC(=O)NCC3(N4CCOCC4)CCCCC3)coc2c1C | inactive | –
CCc1ccc2[nH]c(=O)c(C3C(C#N)=C(N)Oc4c3ccc3cccnc43)cc2c1 (stereo not drawn) | inconclusive: 12.6 µM [inhibitor, single point] | –
Cc1cc(C)nc(-n2nc(C)cc2NC(=O)CN2CCC(C)CC2)n1 | active: 5.01 µM | –
Brc1ccc(C2Nc3cccc4cccc(c34)N2)s1 | inconclusive: 28.2 µM [inhibitor, single point] | –
COc1ccc(NC(=O)C2C3C=CC4(O3)C2C(=O)N(CCN2CCCCC2C)C4C(=O)NC2CCCCC2)cc1 (stereo not drawn) | inconclusive: 31.6 µM [inhibitor, single point] | –
O=C(Cn1nnc(-c2ccccc2NC(=O)c2ccco2)n1)Nc1ccccc1 | inconclusive: 7.94 µM [inhibitor, partial curve] | –
COc1ccc([C@H]2C[C@H](O)[C@@H](n3cc(COC(=O)c4ccccc4)nn3)CN2CC2CCCCC2)cc1 | inconclusive: 28.2 µM [inhibitor, single point] | –
Cc1ccc(C(C)C)c(OCCNC(=S)Nc2cccc3ccccc23)c1 | inconclusive: 11.2 µM [inhibitor, partial curve, poor fit] | –
Cc1cc(C)n(CCc2nc(-c3ccc(C(C)(C)C)cc3)cs2)n1 | inconclusive: 5.01 µM [inhibitor, full curve] | –
COc1ccc(-c2nc(N/N=C(\C)c3ccc(O)cc3)c3ccccc3n2)cc1 | inconclusive: 28.2 µM [inhibitor, single point] | –
Cc1cccc(C)c1N=Nc1c(C)cc(O)cc1C | inconclusive: 12.6 µM [inhibitor, single point] | –
CCOC(=O)c1cc(-c2ccccc2)n(CCC(=O)Nc2ccc(OC)c(Cl)c2)c1C | inactive | –
COc1ccccc1N1CCN(C2=Nc3cccc4cccc2c34)CC1 | inconclusive: 28.2 µM [inhibitor, single point] | –
CC(C)N(C(=O)N1CCN(c2ccnc3cc(Cl)ccc23)CC1)C(C)C | inconclusive: 28.2 µM [inhibitor, single point] | –
CN(CC1COc2ccccc2O1)C(=S)NC1CCCCC1 (stereo not drawn) | inactive | –
Fc1ccccc1CNC(=S)Nc1ccc(Cl)cc1 | inconclusive: 12.6 µM [inhibitor, single point] | –
CC1CCN(C(=S)NC(=O)c2ccccc2)CC1 | inconclusive: 10 µM [inhibitor, partial curve, poor fit] | –
